Data taken from paper PMC4402546.
These are yes or no findings as the source states them, for the method shown. Some entries that bind do so weakly or less than the wild type. Values belong to the binder of their own block, whether it stands above or below them.

Experiments:
[1] = molecular target: T1, ORRM3 (organelle RRM protein 3), mature coding sequence (Arabidopsis) (UniProt Q9FNR1); test: two-hybrid; yeast strain PJ69-4 a and alpha, double transformants by mating; spotted at 1 x 10^6 and 1 x 10^5 cells/ml on media without leucine, tryptophan, adenine and histidine; empty vectors as control for auto-activation; read 2 d to 10 d after spotting
T1 sequence: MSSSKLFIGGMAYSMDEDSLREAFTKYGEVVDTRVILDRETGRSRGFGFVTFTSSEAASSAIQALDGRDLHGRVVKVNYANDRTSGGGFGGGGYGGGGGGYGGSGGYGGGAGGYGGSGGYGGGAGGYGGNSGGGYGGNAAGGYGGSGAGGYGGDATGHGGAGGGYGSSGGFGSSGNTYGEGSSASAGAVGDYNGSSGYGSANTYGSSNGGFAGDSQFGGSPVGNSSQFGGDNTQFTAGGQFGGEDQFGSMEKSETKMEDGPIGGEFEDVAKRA

[2] = molecular target: T2, ORRM2 (organelle RRM protein 2), mature coding sequence (Arabidopsis) (UniProt Q9FIU6); test: as above
T2 sequence: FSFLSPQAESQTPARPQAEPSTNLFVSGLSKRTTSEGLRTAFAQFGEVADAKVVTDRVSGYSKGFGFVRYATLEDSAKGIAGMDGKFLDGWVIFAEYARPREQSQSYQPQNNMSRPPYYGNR

binding [1]: binds
binding [2]: no binding
B1: RIP1 (RNA-editing factor interacting protein 1) (protein, UniProt Q9LKA5 57-395)
chain: GGLVSVKGLSTQATSSSLNDPNPNWSNRPPKETILLDGCDFEHWLVVVEPPQGEPTRDEIIDSYIKTLAQIVGSEDEARMKIYSVSTRCYYAFGALVSEDLSHKLKELSNVRWVLPDSYLDVRNKDYGGEPFIDGKAVPYDPKYHEEWIRNNARANERNRRNDRPRNNDRSRNFERRRENMAGGPPPQRPPMGGPPPPPHIGGSAPPPPHMGGSAPPPPHMGQNYGPPPPNNMGGPRHPPPYGAPPQNNMGGPRPPQNYGGTPPPNYGGAPPANNMGGAPPPNYGGGPPPQYGAVPPPQYGGAPPQNNNYQQQGSGMQQPQYQNNYPPNRDGSGNPYQG

binding [2]: no binding
B2: ORRM2 (organelle RRM protein 2), mature coding sequence (protein, UniProt Q9FIU6 35-156)
chain: T2 sequence

binding [1]: binds
binding [2]: binds
B3: ORRM3 (organelle RRM protein 3), mature coding sequence (protein, UniProt Q9FNR1 37-309)
chain: T1 sequence

binding [1]: no binding
binding [2]: no binding
B4: RIP3 (protein, UniProt Q84JZ6 63-244)
chain: TSGSGYSPLNDPSPNWSNRPPKETILLDGCDYEHWLIVMEFTDPKPTEEEMINSYVKTLTSVLGCEEEAKKKIYSVCTSTYTGFGALISEELSCKVKALPGVLWVLPDSYLDVPNKDYGGDLYVEGKVIPRPQYRFTEQRHTRPRPRPRYDRRRETMQVERREPSMGLHSPVNPGEFNKPSA
